Publication PMC4336329 (PLoS ONE, 2015)
The whole screen tested about 310,000 compounds, of which about 14,000 (4.5%) showed an effect of 50% or more. Effects have a minus sign here. This is one part of the list.

target: human ether-à-go-go-related gene (hERG) potassium channel (human, UniProt Q12809); assay: primary screen, population patch clamp on CHO cells stably expressing hERG
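Also: peak tail current of the secondary pulse compared with the same well before compound.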

human ether-à-go-go-related gene (hERG) potassium channel, sequence (Q12809 whole entry, looked up): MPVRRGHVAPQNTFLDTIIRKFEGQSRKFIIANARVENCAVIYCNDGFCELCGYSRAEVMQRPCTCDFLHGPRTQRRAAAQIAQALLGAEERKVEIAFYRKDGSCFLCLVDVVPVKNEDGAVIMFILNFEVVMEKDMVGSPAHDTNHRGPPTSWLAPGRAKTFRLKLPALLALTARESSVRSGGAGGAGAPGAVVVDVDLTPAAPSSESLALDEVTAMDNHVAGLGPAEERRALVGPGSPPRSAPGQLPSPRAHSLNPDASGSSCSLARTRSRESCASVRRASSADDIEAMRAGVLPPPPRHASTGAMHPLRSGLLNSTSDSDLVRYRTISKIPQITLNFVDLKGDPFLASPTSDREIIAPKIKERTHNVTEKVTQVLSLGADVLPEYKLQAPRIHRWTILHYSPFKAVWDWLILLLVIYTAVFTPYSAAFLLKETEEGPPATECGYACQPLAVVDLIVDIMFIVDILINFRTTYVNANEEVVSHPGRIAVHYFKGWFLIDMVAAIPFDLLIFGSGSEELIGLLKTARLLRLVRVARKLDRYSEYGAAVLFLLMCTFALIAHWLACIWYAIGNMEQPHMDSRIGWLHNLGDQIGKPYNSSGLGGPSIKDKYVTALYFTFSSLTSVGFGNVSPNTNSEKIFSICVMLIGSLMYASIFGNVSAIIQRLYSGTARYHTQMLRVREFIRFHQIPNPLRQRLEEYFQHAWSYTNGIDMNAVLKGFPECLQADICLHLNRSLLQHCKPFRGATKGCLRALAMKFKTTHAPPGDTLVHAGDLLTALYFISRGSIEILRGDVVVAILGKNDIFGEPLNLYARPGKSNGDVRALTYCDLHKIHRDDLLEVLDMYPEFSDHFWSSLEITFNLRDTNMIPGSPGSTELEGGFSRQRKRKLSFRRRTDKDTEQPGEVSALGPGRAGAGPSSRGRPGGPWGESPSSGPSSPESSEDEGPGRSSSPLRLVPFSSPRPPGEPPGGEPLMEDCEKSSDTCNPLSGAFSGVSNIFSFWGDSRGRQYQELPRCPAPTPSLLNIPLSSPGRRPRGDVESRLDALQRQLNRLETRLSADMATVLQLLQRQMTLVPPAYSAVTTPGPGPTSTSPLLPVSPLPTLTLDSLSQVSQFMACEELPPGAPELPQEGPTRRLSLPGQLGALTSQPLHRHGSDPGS

SMILES	hERG current change (%, negative = inhibition) at 10uM
Cc1ccc(C(=O)NCCSC(C)(C)C)cc1	-5.45%
CCOc1ccc(N2C(=O)CNC2=S)cc1	15.8%
CSc1ncccc1C(=O)Nc1nc2ccc(S(C)(=O)=O)cc2s1	-3.88%
COc1cc(/C=C/c2cc(C(=O)O)c3ccccc3n2)ccc1OC(F)F	2.9%
O=C(COC(=O)C1(c2ccccc2)CCCC1)N1CCNC1=O	-5.73%
COc1ccc(CC(O)CC2c3c(cc4c(c3OC)OCO4)CCN2C)cc1.Cl (centres unmarked)	-78.9%
CCOCCCNC(=O)C1CCCN1C(=O)NC1CCCCC1 (centres unmarked)	20.7%
CCn1c(C2CC(=O)N(c3ccc(C)c(C)c3)C2)nc2ccccc21 (centres unmarked)	-11.5%
CC1(c2ccc(Cl)cc2)NC(=O)N(CC(=O)Nc2ccc(N3CCCCC3)cc2)C1=O (centres unmarked)	6.47%
O=C(COC(=O)/C=C/c1cccc(Br)c1)NCc1ccco1	8.59%
CC(c1ccccc1)N1CC(C(=O)NC2CCCC2)CC1=O (centres unmarked)	-34.3%
COc1cc(/C=N/NC(=O)c2ccc(CN3C(=O)c4cccc5cccc3c45)cc2)cc(OC)c1O	1.25%
CN(C)CCN(C(=O)c1ccc2c(c1)OCCO2)c1nc2c(Cl)cccc2s1.Cl	-59.3%
Cc1ccccc1OCC(=O)N1CCc2ccccc2C1	0.601%
Cc1ccc(NC(=O)C2=NNC(=O)CC2)cc1F	6.29%
CCn1c(=O)c([N+](=O)[O-])c(NCCN(C)C)c2ccccc21	18.2%
CCOC(=O)CN1N=C(/C=C/c2ccc(C(C)C)cc2)CCC1=O	-3.53%
O=C(N/N=C/c1cccc([N+](=O)[O-])c1)c1cc(-c2ccc3c(c2)OCO3)n[nH]1	3.15%
CN(C)c1cc(-c2cccc([N+](=O)[O-])c2)oc(=O)c1Cl	9.17%
OC[C@H]1OC(O)[C@@H](O)[C@@H](O)[C@@H]1O (some centres unmarked)	3.37%
O=C(NC1(C(F)(F)F)NC(=O)N(C2CCCCC2)C1=O)C1CC1 (centres unmarked)	-0.163%
Cc1[nH]c2ccccc2c1C(=O)C(=O)N1c2ccccc2CC1C (centres unmarked)	-18.6%

SMILES	hERG current change (%, negative = inhibition) at 10uM
COc1ccc(NC(=S)N(CCCN2CCOCC2)Cc2ccco2)cc1	-7.89%
COC(=O)CC1C(=O)NCCN1C(=S)NC(=O)c1ccccc1[N+](=O)[O-] (centres unmarked)	-5.29%
Cc1ccc(S(=O)(=O)NC(=O)COc2ccc([N+](=O)[O-])cc2)cc1	4.55%
COc1cc(OC)cc(-c2nn[nH]n2)c1	6.92%
CCc1c(C)nc(N)n2c(SCC(=O)N3CCCC(C)C3)nnc12 (centres unmarked)	-10.3%
COc1cc(S(=O)(=O)n2nnc3ccccc32)c(OC)cc1Cl	-1.71%
Cc1ccc(F)c(NC(=O)CCc2ccccc2)c1	13%
CC(C)c1ccc(NC(=O)c2ccc(Br)o2)cc1	3.82%
O=C(CSc1ccc2c(c1)OCCO2)Nc1cccc(S(=O)(=O)N2CCCCC2)c1	-7.5%
CN(c1ccc(C(=O)Nc2cccc(O)c2)cc1)S(=O)(=O)c1ccccc1	-22.1%
COc1ccc(CC(=O)NCC(=O)N/N=C(/C)c2ccco2)cc1	-3.58%
N=c1c2c(-c3ccccc3)c(-c3ccccc3)oc2ncn1CCN1CCOCC1	-70.8%
O=C(CSc1nc2c(cnn2-c2ccccc2)c(=O)[nH]1)c1ccc(Cl)cc1	4.95%
O=C(CSc1nc(=O)n2ccccc2n1)NCc1ccccc1	-1.77%
CN(C)S(=O)(=O)c1ccc(C(=O)Oc2coc(CSc3ncccn3)cc2=O)cc1	-28.6%
O=C(O)c1cccc(NC(=O)c2cc(S(=O)(=O)N3CCOCC3)cs2)c1	19.6%
CS(=O)(=O)Nc1ccc2c(c1)OCC(=O)N2Cc1ccccc1	-25.5%
Cc1ccc(NC(C#N)c2ccccc2OCc2ccccc2)cc1 (centres unmarked)	-1.76%
O=C(O)CCCN=CC1=C(O)C(C(=O)c2ccccc2)CCC1=O (centres unmarked)	20.5%
COc1ccc(N=Nc2c(-c3ccc(OC)cc3)[nH]oc2=O)cc1	12.5%
COCCN1C(=O)c2ccccc2C(C(=O)N2CCN(c3ccccc3)CC2)C1c1ccc(F)cc1 (centres unmarked)	-9.73%
CC(=O)Cc1nsc(NC(=O)c2ccc(COc3ccccc3C)o2)n1	0.496%
